Test results from the supplement of paper PMC9446081.
Out of some 39,000 compounds screened, about 220 (0.56%) showed activity. The list shows a part of the results.

Tested on: Escherichia coli K-12 BW25113
Assay: relative growth (OD600 normalised to plate interquartile mean) (fraction); higher = less growth inhibition, active = 0.2 or less
Settings: 50 µM; LB; incubation time: overnight (16-24 h)
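Also: static incubation at 37 °C against the wild-type strain, values averaged over two biological replicates.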

SMILES | relative growth
CC(=O)N1CC(=O)N(c2cnn(C)c2)C[C@]12CCN(C(=O)c1cnc(C)cn1)C2 | inactive: 0.975
C[C@@H]1CN([C@H](C)CO)C(=O)c2cc(NC(=O)Nc3ccc(F)cc3)ccc2O[C@H]1CN(C)S(=O)(=O)c1cn(C)cn1 | inactive: 1.01
CN1CCN(C(=O)C[C@H]2C=C[C@@H](NC(=O)Nc3ccccc3F)[C@@H](CO)O2)CC1 | inactive: 0.995
O=C1C(=CNC(CO)(CO)CO)C(=O)c2ccccc21 | inactive: 1.01
C[C@@H]1CCCCO[C@@H](CN(C)C(=O)CCC(F)(F)F)[C@@H](C)CN([C@@H](C)CO)C(=O)c2cc(NS(=O)(=O)c3ccc(F)cc3)ccc2O1 | inactive: 0.984
O=C(C[C@@H]1CC[C@H]2[C@@H](COC[C@@H](O)CN2C(=O)c2ccc3c(c2)OCO3)O1)NCCN1CCCC1 | inactive: 1.01
N#CCn1ccccc1=O | inactive: 0.984
O=C(C[C@@H]1CC[C@@H]2[C@H](COC[C@@H](O)CN2S(=O)(=O)c2cccc(F)c2)O1)NCc1ccc2c(c1)OCO2 | inactive: 1.04
C[C@@H]1CCCCO[C@H](CN(C)Cc2ccccc2)[C@H](C)CN([C@H](C)CO)C(=O)c2cc(NS(=O)(=O)c3cccs3)ccc2O1 | inactive: 1.03
C[C@H](CO)N1C[C@H](C)[C@@H](CN(C)C(=O)Nc2ccc(C(F)(F)F)cc2)Oc2ccc(NS(=O)(=O)c3ccc(Cl)cc3)cc2C1=O | inactive: 1.05
CO[C@@H]1CN(C)C(=O)c2cc(NC(=O)CN(C)C)ccc2OC[C@@H](C)N(Cc2ccccc2F)C[C@H]1C | inactive: 1.03
Cc1ccc(S(=O)(=O)N(C)C[C@H]2Oc3cc(Br)ccc3S(=O)(=O)N([C@@H](C)CO)C[C@@H]2C)cc1 | inactive: 1.02
C[C@H]1CCCCO[C@H](CN(C)C(=O)CCC(F)(F)F)[C@@H](C)CN([C@@H](C)CO)C(=O)c2cc(NC(=O)Nc3ccc4c(c3)OCO4)ccc2O1 | inactive: 1.02
CC(C)(C)NCC(O)COc1ccccc1C1CCCC1.O=S(=O)(O)O (stereo not drawn) | inactive: 0.863
C[C@@H]1CCCCO[C@H](CN(C)C)[C@H](C)CN([C@H](C)CO)C(=O)c2cc(NS(=O)(=O)c3cn(C)cn3)ccc2O1 | inactive: 0.976
Nc1ncnc2c1CCC2 | inactive: 1
C[C@@H]1CN([C@H](C)CO)C(=O)c2cccc(NC(=O)Nc3ccc(F)cc3)c2O[C@H]1CN(C)C(=O)Nc1cccc2ccccc12 | inactive: 0.997
COc1ccc(CN(C)C[C@@H]2OCCCC[C@@H](C)Oc3ccc(NC(=O)Nc4cccc5ccccc45)cc3C(=O)N([C@H](C)CO)C[C@H]2C)cc1 | inactive: 0.993
Cc1noc(C)c1S(=O)(=O)Nc1ccc2c(c1)C(=O)N([C@@H](C)CO)C[C@@H](C)[C@@H](CN(C)S(=O)(=O)c1cn(C)cn1)OCCCC[C@H](C)O2 | inactive: 1.04

SMILES | relative growth
Cc1noc(C)c1NC(=O)Nc1ccc2c(c1)C(=O)N([C@H](C)CO)C[C@@H](C)[C@H](CN(C)Cc1ccccc1)OCCCC[C@@H](C)O2 | inactive: 0.974
C[C@H](CO)N1C[C@H](C)[C@@H](CN(C)S(=O)(=O)c2ccc(Cl)cc2)Oc2ccc(NC(=O)Nc3cccc4ccccc34)cc2C1=O | inactive: 0.934
O=C(Nc1ccc(-c2nc3ccc(NC(=O)c4ccc(NC(=O)c5cccc6ccccc56)cc4)cc3[nH]2)cc1)c1ccc(NC(=O)c2cccc3ccccc23)cc1 | inactive: 1.02
C[C@@H]1CN([C@@H](C)CO)C(=O)c2cccc(NS(=O)(=O)c3ccc(Cl)cc3)c2O[C@@H]1CN(C)Cc1ccc(-c2ccccc2)cc1 | inactive: 0.98
CCCNC(=O)N(C)C[C@@H]1Oc2cc(C#Cc3cccc(F)c3)ccc2S(=O)(=O)N([C@@H](C)CO)C[C@H]1C | inactive: 1
C[C@@H]1CN([C@@H](C)CO)C(=O)c2cc(NC(=O)c3ccccc3)ccc2O[C@@H](C)CCCCO[C@@H]1CN(C)C(=O)Nc1ccc(C(F)(F)F)cc1 | inactive: 1.02
C[C@@H]1CN([C@H](C)CO)C(=O)c2cccc(NC(=O)Nc3ccc4c(c3)OCO4)c2O[C@H]1CN(C)C(=O)Nc1ccc(C(F)(F)F)cc1 | inactive: 0.913
C[C@H](CO)N1C[C@H](C)[C@@H](CN(C)C(=O)Nc2ccccc2)Oc2cc(Br)ccc2S1(=O)=O | inactive: 0.95
COc1ccc(S(=O)(=O)Nc2cccc3c2O[C@H](CN(C)C(=O)NC(C)C)[C@H](C)CN([C@H](C)CO)C3=O)cc1 | inactive: 1
Cc1noc(C)c1S(=O)(=O)N(C)C[C@H]1Oc2ccc(NC(=O)NC3CCCCC3)cc2CC(=O)N([C@H](C)CO)C[C@@H]1C | inactive: 0.986
COc1ccc(C(=O)C=Cc2ccccc2)cc1 | inactive: 0.991
C[C@H]1CN([C@@H](C)CO)C(=O)c2cc(NC(=O)c3ccncc3)ccc2O[C@@H]1CN(C)Cc1ccc(-c2ccccc2)cc1 | inactive: 0.998
Cc1noc(C)c1NC(=O)Nc1ccc2c(c1)C(=O)N([C@@H](C)CO)C[C@@H](C)[C@H](CN(C)Cc1ccncc1)OCCCC[C@H](C)O2 | inactive: 0.993
O=C(C[C@@H]1CC[C@H]2[C@@H](COC[C@H](O)CN2S(=O)(=O)c2ccc(Cl)cc2)O1)N[C@H]1CCN(Cc2ccccc2)C1 | inactive: 0.998
C[C@@H]1CN([C@@H](C)CO)C(=O)c2cc(NC(=O)CCCN(C)C)ccc2O[C@@H]1CN(C)S(=O)(=O)c1ccc(F)cc1 | inactive: 1.01
COCCNC(=O)C[C@@H]1CC[C@H]2[C@@H](COC[C@H](O)CN2S(=O)(=O)c2ccccc2F)O1 | inactive: 0.994
COc1ccc(S(=O)(=O)N(C)C[C@H]2OCc3cnnn3CCCC(=O)N([C@H](C)CO)C[C@@H]2C)cc1 | inactive: 0.928
COCc1cn(CC[C@@H]2CC[C@@H](NC(=O)CCN3CCCCC3)[C@H](CO)O2)nn1 | inactive: 0.983
CC(C)NC(=O)N(C)C[C@@H]1Oc2ccc(NS(=O)(=O)c3cn(C)cn3)cc2CC(=O)N([C@H](C)CO)C[C@@H]1C | inactive: 0.971
